Some of the results follow.
What was measured:
[1] = test system: HSkMC (human skeletal muscle cells); experiment: cytotoxicity call (relative viability < 0.9); conditions: 10 µM
[2] = test system: HepG2; experiment: cytotoxicity call (relative viability < 0.9); conditions: 10 µM
[3] = test system: S. aureus RN4220; experiment: growth inhibition call (relative growth <= 0.2); conditions: 50 µM

| SMILES | cytotoxicity call [1] | cytotoxicity call [2] | growth inhibition call [3] |
| --- | --- | --- | --- |
| Cc1cc(C(=O)Nc2cccc3c2O[C@H](CN(C)Cc2ccccc2)[C@H](C)CN([C@H](C)CO)C3=O)n(C)n1 | inactive | inactive | inactive |
| COc1ccc(CN(C)C[C@H]2Oc3ccc(NC(=O)CCN4CCOCC4)cc3C(=O)N([C@H](C)CO)C[C@@H]2C)cc1 | inactive | inactive | inactive |
| C[C@@H]1CN([C@H](C)CO)C(=O)c2cccc(NS(C)(=O)=O)c2O[C@@H]1CN(C)S(=O)(=O)c1ccc(F)cc1 | inactive | inactive | inactive |
| Cc1ccoc1C(=O)NCCN | inactive | inactive | inactive |
| Cc1ccc(S(=O)(=O)N2C[C@@H](O)COC[C@H]3O[C@H](CC(=O)NCCN4CCCCC4)CC[C@@H]32)cc1 | inactive | inactive | inactive |
| COc1ccc(CN(C)C[C@@H]2OCCCC[C@H](C)Oc3ccc(NC(=O)Nc4ccc(OC)cc4)cc3C(=O)N([C@@H](C)CO)C[C@H]2C)cc1 | inactive | active | inactive |
| C[C@H]1CN([C@@H](C)CO)C(=O)c2cc(/C=C/c3ccccc3)cnc2O[C@H]1CN(C)C(=O)c1cnccn1 | inactive | inactive | inactive |
| C[C@@H]1CCCCO[C@@H](CN(C)Cc2ccc(C(F)(F)F)cc2)[C@H](C)CN([C@@H](C)CO)C(=O)c2cc(NC(=O)CCCN(C)C)ccc2O1 | inactive | inactive | inactive |
| COc1ccccc1C#Cc1ccc2c(c1)O[C@H](CN(C)Cc1cncnc1)[C@H](C)CN([C@@H](C)CO)S2(=O)=O | inactive | inactive | inactive |
| C[C@@H]1CN([C@H](C)CO)C(=O)Cc2cc(NC(=O)Nc3ccc(C(F)(F)F)cc3)ccc2O[C@@H]1CN(C)Cc1ccccc1 | active | active | inactive |
| CCc1nc2ccc(C(=O)NCc3ccc(OC)cc3)cn2c1N(CC)Cc1cccc(Br)c1 | inactive | inactive | inactive |
| C[C@H](O)C#Cc1ccc2c(c1)O[C@H](CN(C)C(=O)c1ccccc1)[C@@H](C)CN([C@@H](C)CO)S2(=O)=O | inactive | inactive | inactive |
| C[C@@H]1CN([C@@H](C)CO)C(=O)c2cc(NC(=O)C3CCCCC3)ccc2O[C@@H]1CN(C)Cc1ccc(C(F)(F)F)cc1 | inactive | inactive | inactive |
| Cc1cccc(S(=O)(=O)N2C[C@H](O)COC[C@@H]3O[C@H](CC(=O)NCc4ccncn4)CC[C@H]32)c1 | inactive | inactive | inactive |
| C[C@@H]1CN([C@H](C)CO)C(=O)c2cc(NC(=O)Nc3ccc(F)cc3)ccc2O[C@H]1CN(C)Cc1ccc(-c2ccccc2)cc1 | active | inactive | inactive |
| O=C(O)Cn1cc2c(n1)CCCC2 | inactive | inactive | inactive |
| COc1ccc(NC(=O)N(C)C[C@@H]2Oc3c(NC(=O)c4cc(C)nn4C)cccc3C(=O)N([C@H](C)CO)C[C@H]2C)cc1 | inactive | inactive | inactive |
| C[C@@H]1CN([C@@H](C)CO)C(=O)c2cc(NC(=O)NC3CCCCC3)ccc2O[C@@H]1CN(C)S(=O)(=O)c1cn(C)cn1 | inactive | inactive | inactive |
| COc1ccc(CN(C)C[C@@H]2OCCCC[C@@H](C)Oc3ccc(NC(=O)NC(C)C)cc3C(=O)N([C@@H](C)CO)C[C@@H]2C)cc1 | inactive | inactive | inactive |
| O=C1C=C2CC3(O)COc4c(ccc(O)c4O)C3=C2C=C1O (configuration not stated) | inactive | inactive | inactive |
| CCOC(=O)c1cncc(C(=O)O)c1 | inactive | inactive | inactive |
| S=C(SN1CCOCC1)N1CCOCC1 | inactive | inactive | inactive |
| C[C@H]1CCCCO[C@@H](CN(C)Cc2ccc(C(=O)O)cc2)[C@@H](C)CN([C@@H](C)CO)C(=O)c2cc(NC(=O)C3CCCCC3)ccc2O1 | inactive | inactive | inactive |
| NCC1CCC(C(=O)O)CC1 (configuration not stated) | inactive | inactive | inactive |
| Cn1c(=O)c2[nH]cnc2n(C)c1=O | inactive | inactive | inactive |
| NCc1cc2ccccc2s1 | inactive | inactive | inactive |
| C[C@H]1CCCCO[C@H](CN(C)S(=O)(=O)c2ccc(F)cc2)[C@@H](C)CN([C@@H](C)CO)C(=O)c2cc(NC(=O)CCC(F)(F)F)ccc2O1 | inactive | inactive | inactive |
| Cc1cc(NC(=O)C(=O)NC[C@H]2CCCO2)n(-c2nc(=O)cc(C)[nH]2)n1 | inactive | inactive | inactive |
| COc1ccc(S(=O)(=O)N(C)C[C@@H]2Oc3ccc(NS(=O)(=O)c4cccs4)cc3CC(=O)N([C@@H](C)CO)C[C@@H]2C)cc1 | inactive | inactive | inactive |

— the antibiotic and cytotoxicity screens of Wong et al. (2023)
